# Laboratory results taken from the supplement of paper PMC8728848.
# This is one part of the list.
# B1: Fm1D (Escherichia coli) (protein)
# chain: FSCNVDGGSSIGAGTTSVYVNLDPVIQPGQNLVVDLSQHISCWNDYGGWYDTDHINLVQGSAFAGSLQSYKGSLYWNNVTYPFPLTTNTNVLDIGDKTPMPLPLKLYITPVGAAGGVVIKAGEVIARIHMYKIATLGSGNPRNFTWNIISNNSVVMPTHHHHHH
# Legend:
# Test in all cases: glycan array binding signal (z-score within array); higher = stronger binding
# Details in all cases: glycan notation: IUPAC condensed, linker removed
# [1] = target: Neu5Ac(a2-3)GalNAc(b1-4)GlcNAc
# Summary of the method: (§1)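 The binding signal is a Z-score computed within each array. Data were drawn from 3228 arrays in the Consortium for Functional Glycomics database, restricted to those with a known protein sequence. Scores were averaged over arrays of the same protein sequence at different concentrations or buffers, and over linkers, and negative values can be taken as non-binding.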
# [2] = target: Neu5Ac(a2-3)[GalNAc(b1-4)]Gal(b1-4)Glc
# Summary of the method: as §1
# [3] = target: Neu5Ac(a2-3)[GalNAc(b1-4)]Gal(b1-4)GlcNAc
# Summary of the method: as §1
# [4] = target: Neu5Ac(a2-3)[GalNAc(b1-4)]Gal(b1-4)GlcNAc(b1-3)GalNAc
# Summary of the method: as §1
# [5] = target: Neu5Ac(a2-3)[Neu5Ac(a2-6)]GalNAc
# Summary of the method: as §1
# Neu5Ac(a2-6)Gal = target: Neu5Ac(a2-6)Gal
# Summary of the method: as §1
# [6] = target: Neu5Ac(a2-6)Gal(b1-3)GlcNAc(b1-3)[Gal(b1-4)GlcNAc(b1-6)]Gal(b1-4)Glc
# Summary of the method: as §1
# Neu5Ac(a2-6)Gal(b1-4)Glc = target: Neu5Ac(a2-6)Gal(b1-4)Glc
# Summary of the method: as §1
# [7] = target: Neu5Ac(a2-6)Gal(b1-4)GlcNAc
# Summary of the method: as §1
# [8] = target: Neu5Ac(a2-6)Gal(b1-4)GlcNAc(b1-2)Man
# Summary of the method: as §1
# [9] = target: Neu5Ac(a2-6)Gal(b1-4)GlcNAc(b1-2)Man(a1-3)Man(b1-4)GlcNAc(b1-4)GlcNAc
# Summary of the method: as §1
# [10] = target: Neu5Ac(a2-6)Gal(b1-4)GlcNAc(b1-2)Man(a1-3)[Gal(b1-4)GlcNAc(b1-2)Man(a1-6)]Man(b1-4)GlcNAc(b1-4)GlcNAc
# Summary of the method: as §1
# [11] = target: Neu5Ac(a2-6)Gal(b1-4)GlcNAc(b1-2)Man(a1-3)[GlcNAc(b1-2)Man(a1-6)]Man(b1-4)GlcNAc(b1-4)GlcNAc
# Summary of the method: as §1
# [12] = target: Neu5Ac(a2-6)Gal(b1-4)GlcNAc(b1-2)Man(a1-3)[GlcNAc(b1-4)][Neu5Ac(a2-6)Gal(b1-4)GlcNAc(b1-2)Man(a1-6)]Man(b1-4)GlcNAc(b1-4)GlcNAc
# Summary of the method: as §1
# [13] = target: Neu5Ac(a2-6)Gal(b1-4)GlcNAc(b1-2)Man(a1-3)[Man(a1-6)]Man(b1-4)GlcNAc(b1-4)GlcNAc
# Summary of the method: as §1
# [14] = target: Neu5Ac(a2-6)Gal(b1-4)GlcNAc(b1-2)Man(a1-3)[Neu5Ac(a2-3)Gal(b1-4)GlcNAc(b1-2)Man(a1-6)]Man(b1-4)GlcNAc(b1-4)GlcNAc
# Summary of the method: as §1
# [15] = target: Neu5Ac(a2-6)Gal(b1-4)GlcNAc(b1-2)Man(a1-3)[Neu5Ac(a2-6)Gal(b1-4)GlcNAc(b1-2)Man(a1-6)]Man(b1-4)GlcNAc(b1-4)GlcNAc
# Summary of the method: as §1
# [16] = target: Neu5Ac(a2-6)Gal(b1-4)GlcNAc(b1-2)Man(a1-3)[Neu5Ac(a2-6)Gal(b1-4)GlcNAc(b1-2)Man(a1-6)]Man(b1-4)GlcNAc(b1-4)[Fuc(a1-6)]GlcNAc
# Summary of the method: as §1
# [17] = target: Neu5Ac(a2-6)Gal(b1-4)GlcNAc(b1-2)Man(a1-6)Man(b1-4)GlcNAc(b1-4)GlcNAc
# Summary of the method: as §1
# [18] = target: Neu5Ac(a2-6)Gal(b1-4)GlcNAc(b1-2)Man(a1-6)[Gal(b1-4)GlcNAc(b1-2)Man(a1-3)]Man(b1-4)GlcNAc(b1-4)GlcNAc
# Summary of the method: as §1
# [19] = target: Neu5Ac(a2-6)Gal(b1-4)GlcNAc(b1-2)Man(a1-6)[GlcNAc(b1-2)Man(a1-3)]Man(b1-4)GlcNAc(b1-4)GlcNAc
# Summary of the method: as §1
# [20] = target: Neu5Ac(a2-6)Gal(b1-4)GlcNAc(b1-2)Man(a1-6)[Man(a1-3)]Man(b1-4)GlcNAc(b1-4)GlcNAc
# Summary of the method: as §1
# [21] = target: Neu5Ac(a2-6)Gal(b1-4)GlcNAc(b1-2)[Neu5Ac(a2-6)Gal(b1-4)GlcNAc(b1-4)]Man(a1-3)[GlcNAc(b1-4)][Neu5Ac(a2-6)Gal(b1-4)GlcNAc(b1-2)[Neu5Ac(a2-6)Gal(b1-4)GlcNAc(b1-6)]Man(a1-6)]Man(b1-4)GlcNAc(b1-4)GlcNAc
# Summary of the method: as §1
# [22] = target: Neu5Ac(a2-6)Gal(b1-4)GlcNAc(b1-2)[Neu5Ac(a2-6)Gal(b1-4)GlcNAc(b1-4)]Man(a1-3)[GlcNAc(b1-4)][Neu5Ac(a2-6)Gal(b1-4)GlcNAc(b1-4)Man(a1-6)]Man(b1-4)GlcNAc(b1-4)GlcNAc
# Summary of the method: as §1
# [23] = target: Neu5Ac(a2-6)Gal(b1-4)GlcNAc(b1-2)[Neu5Ac(a2-6)Gal(b1-4)GlcNAc(b1-6)]Man(a1-6)[Neu5Ac(a2-6)Gal(b1-4)GlcNAc(b1-2)Man(a1-3)][GlcNAc(b1-4)]Man(b1-4)GlcNAc(b1-4)GlcNAc
# Summary of the method: as §1
# [24] = target: Neu5Ac(a2-6)Gal(b1-4)GlcNAc(b1-3)Gal(b1-3)GlcNAc
# Summary of the method: as §1
# [25] = target: Neu5Ac(a2-6)Gal(b1-4)GlcNAc(b1-3)Gal(b1-4)GlcNAc
# Summary of the method: as §1
# [26] = target: Neu5Ac(a2-6)Gal(b1-4)GlcNAc(b1-3)Gal(b1-4)GlcNAc(b1-2)Man(a1-3)[Neu5Ac(a2-6)Gal(b1-4)GlcNAc(b1-3)Gal(b1-4)GlcNAc(b1-2)Man(a1-6)]GalNAc
# Summary of the method: as §1
# [27] = target: Neu5Ac(a2-6)Gal(b1-4)GlcNAc(b1-3)Gal(b1-4)GlcNAc(b1-3)Gal(b1-4)GlcNAc
# Summary of the method: as §1
# [28] = target: Neu5Ac(a2-6)Gal(b1-4)GlcNAc(b1-3)Gal(b1-4)GlcNAc(b1-3)Gal(b1-4)GlcNAc(b1-2)Man(a1-3)[Neu5Ac(a2-6)Gal(b1-4)GlcNAc(b1-3)Gal(b1-4)GlcNAc(b1-3)Gal(b1-4)GlcNAc(b1-2)Man(a1-6)]GalNAc
# Summary of the method: as §1
# [29] = target: Neu5Ac(a2-6)Gal(b1-4)GlcNAc(b1-3)Gal(b1-4)GlcNAc(b1-3)GalNAc
# Summary of the method: as §1
# [30] = target: Neu5Ac(a2-6)Gal(b1-4)GlcNAc(b1-3)Gal(b1-4)GlcNAc(b1-3)[Neu5Ac(a2-6)Gal(b1-4)GlcNAc(b1-3)Gal(b1-4)GlcNAc(b1-6)]GalNAc
# Summary of the method: as §1
# [31] = target: Neu5Ac(a2-6)Gal(b1-4)GlcNAc(b1-3)Gal(b1-4)GlcNAc(b1-6)[Gal(b1-3)]GalNAc
# Summary of the method: as §1
# [32] = target: Neu5Ac(a2-6)Gal(b1-4)GlcNAc(b1-3)Gal(b1-4)[Fuc(a1-3)]GlcNAc(b1-3)Gal(b1-4)[Fuc(a1-3)]GlcNAc
# Summary of the method: as §1
# [33] = target: Neu5Ac(a2-6)Gal(b1-4)GlcNAc(b1-3)GalNAc
# Summary of the method: as §1
# [34] = target: Neu5Ac(a2-6)Gal(b1-4)GlcNAc(b1-3)[Neu5Ac(a2-6)Gal(b1-4)GlcNAc(b1-6)]GalNAc
# Summary of the method: as §1
# [35] = target: Neu5Ac(a2-6)Gal(b1-4)GlcNAc(b1-6)GalNAc
# Summary of the method: as §1
# [36] = target: Neu5Ac(a2-6)Gal(b1-4)GlcNAc(b1-6)[Gal(b1-3)GlcNAc(b1-3)]Gal(b1-4)Glc
# Summary of the method: as §1
# [37] = target: Neu5Ac(a2-6)Gal(b1-4)GlcNAc(b1-6)[Gal(b1-3)]GalNAc
# Summary of the method: as §1
# [38] = target: Neu5Ac(a2-6)Gal(b1-4)GlcNAc6S
# Summary of the method: as §1
# Neu5Ac(a2-6)GalNAc = target: Neu5Ac(a2-6)GalNAc
# Summary of the method: as §1
# [39] = target: Neu5Ac(a2-6)GalNAc(b1-4)GlcNAc
# Summary of the method: as §1
# [40] = target: Neu5Ac(a2-6)GalNAc(b1-4)GlcNAc6S
# Summary of the method: as §1
# [41] = target: Neu5Ac(a2-6)GlcNAc(b1-4)GlcNAc
# Summary of the method: as §1
# [42] = target: Neu5Ac(a2-6)GlcNAc(b1-4)GlcNAc(b1-4)GlcNAc
# Summary of the method: as §1
binder,measurement,setting,value
B1,glycan array binding signal (z-score),[1],-0.145
same,glycan array binding signal (z-score),[2],-0.146
same,glycan array binding signal (z-score),[3],-0.145
same,glycan array binding signal (z-score),[4],-0.141
same,glycan array binding signal (z-score),[5],-0.139
same,glycan array binding signal (z-score),Neu5Ac(a2-6)Gal,-0.143
same,glycan array binding signal (z-score),[6],-0.145
same,glycan array binding signal (z-score),Neu5Ac(a2-6)Gal(b1-4)Glc,-0.145
same,glycan array binding signal (z-score),[7],-0.144
same,glycan array binding signal (z-score),[8],-0.147
same,glycan array binding signal (z-score),[9],-0.144
same,glycan array binding signal (z-score),[10],-0.141
same,glycan array binding signal (z-score),[11],-0.145
same,glycan array binding signal (z-score),[12],-0.146
same,glycan array binding signal (z-score),[13],-0.145
same,glycan array binding signal (z-score),[14],-0.149
same,glycan array binding signal (z-score),[15],-0.144
same,glycan array binding signal (z-score),[16],-0.144
same,glycan array binding signal (z-score),[17],-0.147
same,glycan array binding signal (z-score),[18],-0.145
same,glycan array binding signal (z-score),[19],-0.136
same,glycan array binding signal (z-score),[20],-0.146
same,glycan array binding signal (z-score),[21],-0.142
same,glycan array binding signal (z-score),[22],-0.139
same,glycan array binding signal (z-score),[23],-0.149
same,glycan array binding signal (z-score),[24],-0.147
same,glycan array binding signal (z-score),[25],-0.147
same,glycan array binding signal (z-score),[26],-0.135
same,glycan array binding signal (z-score),[27],-0.146
same,glycan array binding signal (z-score),[28],-0.133
same,glycan array binding signal (z-score),[29],-0.147
same,glycan array binding signal (z-score),[30],-0.139
same,glycan array binding signal (z-score),[31],11.5
same,glycan array binding signal (z-score),[32],-0.141
same,glycan array binding signal (z-score),[33],-0.144
same,glycan array binding signal (z-score),[34],-0.146
same,glycan array binding signal (z-score),[35],-0.146
same,glycan array binding signal (z-score),[36],-0.146
same,glycan array binding signal (z-score),[37],3.09
same,glycan array binding signal (z-score),[38],-0.131
same,glycan array binding signal (z-score),Neu5Ac(a2-6)GalNAc,-0.148
same,glycan array binding signal (z-score),[39],-0.144
same,glycan array binding signal (z-score),[40],-0.148
same,glycan array binding signal (z-score),[41],-0.147
same,glycan array binding signal (z-score),[42],-0.147
